Measurements published in the supplement of paper PMC3334620.
Whole data set: some 33,000 sequences, median “E-score (-0.5 to 0.5)” near -0.035, cut for the highest 2% near 0.34. This is one part of the list.

What follows are sequences tested against T1, Mot3 (UniProt P54785) (assay: PBM E-score (8-mer binding enrichment) (E-score (-0.5 to 0.5)); higher = stronger / more preferred TF binding; most listed sequences are background and not binding sites). Conditions: protein concentration: 200 nM; construct: GST-full length.
T1 sequence: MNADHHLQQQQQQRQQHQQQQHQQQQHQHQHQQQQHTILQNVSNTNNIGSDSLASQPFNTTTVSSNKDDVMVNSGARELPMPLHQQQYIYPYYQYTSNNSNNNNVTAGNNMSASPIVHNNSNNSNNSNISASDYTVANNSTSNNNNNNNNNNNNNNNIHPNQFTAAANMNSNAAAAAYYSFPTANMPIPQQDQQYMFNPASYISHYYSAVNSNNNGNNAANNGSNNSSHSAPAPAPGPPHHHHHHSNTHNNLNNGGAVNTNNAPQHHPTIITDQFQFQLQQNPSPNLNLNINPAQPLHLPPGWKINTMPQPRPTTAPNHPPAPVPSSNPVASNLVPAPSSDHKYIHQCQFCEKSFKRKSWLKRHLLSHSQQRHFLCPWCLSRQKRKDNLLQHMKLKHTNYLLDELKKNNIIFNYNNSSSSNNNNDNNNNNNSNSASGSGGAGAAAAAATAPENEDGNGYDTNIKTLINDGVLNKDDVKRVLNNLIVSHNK
Experimental: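 Universal 'all 10-mer' protein binding microarrays (Agilent AMADID 015681) probed with GST-tagged S. cerevisiae TFs (full-length or DBD) made by in vitro transcription/translation (PURExpress), about 100-200 nM. Bound TF was detected with fluorescent anti-GST. Each ungapped 8-mer (which stands for itself and its reverse complement) is scored by the PBM enrichment score (E-score), a modified Wilcoxon-Mann-Whitney statistic from -0.5 to +0.5, computed with the Universal PBM Analysis Suite. Scale: above 0.35 generally sequence-specific binding.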
For GGGGGTAC, the “PBM E-score” value was -0.0474. For AGCAAAGA, the “PBM E-score” value was -0.192. CGACTACA was tested, and the “PBM E-score” value was 0.186. With AGCTATAG the “PBM E-score” value was -0.2. In the case of GACCGATA, the “PBM E-score” value is reported as -0.172. GAACTGCC was tested, and the “PBM E-score” value was -0.194. ATGGAGTC was tested, and the “PBM E-score” value was -0.155. For CCCGATCG, the “PBM E-score” value was -0.195. For ATCTGCGA, the “PBM E-score” value was -0.104. For CTTGGATC, the “PBM E-score” value was -0.0997. For ACGCAACT, the “PBM E-score” value was 0.0644. For AGGGAAAG, the “PBM E-score” value was -0.0829. With GAAGATAA the “PBM E-score” value was 0.28. CAAGTCAG was tested, and the “PBM E-score” value was -0.16. In the case of AACTTAAG, the “PBM E-score” value is reported as 0.122. With CGGTGGAA the “PBM E-score” value was -0.158. In the case of CGGAACTA, the “PBM E-score” value is reported as -0.265. For ATTGCTAA, the “PBM E-score” value was 0.00179. CACATTAG was tested, and the “PBM E-score” value was -0.0252. With GAATATCC the “PBM E-score” value was -0.0482. GGATATCC was tested, and the “PBM E-score” value was 0.0614. With AGACGACT the “PBM E-score” value was -0.226. In the case of CGCCTGAC, the “PBM E-score” value is reported as -0.0427. With GTCGAGCA the “PBM E-score” value was -0.114. ATTCCCTG was tested, and the “PBM E-score” value was -0.0347. ACTGTGGA was tested, and the “PBM E-score” value was -0.0812. With AGGGAGGA the “PBM E-score” value was -0.197. With GATCCGCC the “PBM E-score” value was -0.16. AAGCGCAA was tested, and the “PBM E-score” value was 0.0923. In the case of AGACCAGA, the “PBM E-score” value is reported as -0.193. For GTAGCTAC, the “PBM E-score” value was -0.0156. In the case of AATGGTCC, the “PBM E-score” value is reported as -0.129. With CCGCCTAG the “PBM E-score” value was -0.138. For AGCAGTAG, the “PBM E-score” value was -0.226. With GAGGCTGC the “PBM E-score” value was -0.233. In the case of CGAGCCCC, the “PBM E-score” value is reported as -0.193. For GACTACCA, the “PBM E-score” value was -0.0944. CCGGGTAA was tested, and the “PBM E-score” value was -0.0483. For GGGTATAA, the “PBM E-score” value was -0.101. In the case of CGGTAGCC, the “PBM E-score” value is reported as -0.0866. With CTGACTAA the “PBM E-score” value was -0.053. ACATTCTA was tested, and the “PBM E-score” value was 0.208. In the case of AACCGTGC, the “PBM E-score” value is reported as 0.174. In the case of CCAATAGA, the “PBM E-score” value is reported as -0.0589. CGATACCA was tested, and the “PBM E-score” value was -0.0733. ATTGTTGG was tested, and the “PBM E-score” value was 0.117. For AGTGGGAA, the “PBM E-score” value was -0.154. With CACTCTGA the “PBM E-score” value was -0.0141. For CAGTTCGA, the “PBM E-score” value was -0.0174. In the case of GAAGAATC, the “PBM E-score” value is reported as -0.193. With CTGTATCA the “PBM E-score” value was 0.0168. CATCTGGA was tested, and the “PBM E-score” value was -0.216. For AACGTGCA, the “PBM E-score” value was 0.136. For GATAGCCC, the “PBM E-score” value was -0.137. For CCGGCGTA, the “PBM E-score” value was -0.0895. For GATTTTTA, the “PBM E-score” value was 0.0384. With CCTTCGAG the “PBM E-score” value was 0.211. With CTGATATA the “PBM E-score” value was 0.0216. For GCAGATAC, the “PBM E-score” value was -0.135. With GTTCATCA the “PBM E-score” value was -0.0735. AGCACTAG was tested, and the “PBM E-score” value was -0.144. AGCTGACT was tested, and the “PBM E-score” value was -0.193. In the case of CTGTAGTA, the “PBM E-score” value is reported as 0.214. In the case of CGATCACC, the “PBM E-score” value is reported as -0.0719. ACGACTCT was tested, and the “PBM E-score” value was -0.175. In the case of CTGCGAAA, the “PBM E-score” value is reported as -0.00218. For CTACGAAG, the “PBM E-score” value was 0.0238. In the case of GGGACTTA, the “PBM E-score” value is reported as -0.122. For ACCTACGT, the “PBM E-score” value was 0.21. In the case of CAACCCTG, the “PBM E-score” value is reported as -0.017. GCGCATGA was tested, and the “PBM E-score” value was -0.254. With CATGCACA the “PBM E-score” value was 0.148. For ATCGCACA, the “PBM E-score” value was 0.0373. For AACGTGGG, the “PBM E-score” value was 0.0124. With ACGGCGCC the “PBM E-score” value was -0.0621. In the case of GGATTGTA, the “PBM E-score” value is reported as 0.0846. In the case of CAATGTTC, the “PBM E-score” value is reported as -0.0231. In the case of CCTCTCGA, the “PBM E-score” value is reported as -0.217. ATGCTCTG was tested, and the “PBM E-score” value was -0.203. With AGCATCCG the “PBM E-score” value was -0.178. For GGGGCTAA, the “PBM E-score” value was -0.181. In the case of GGGTGCTA, the “PBM E-score” value is reported as -0.13. With AACCTTAA the “PBM E-score” value was 0.16. CAACAAGC was tested, and the “PBM E-score” value was 0.221. ATATAGGC was tested, and the “PBM E-score” value was 0.275. ACCGAAAA was tested, and the “PBM E-score” value was 0.154.
